These are literature values, as cited in PubChem BioAssay AID1259409 (Chemical Carcinogenesis Research Information System (CCRIS), 2018).

This continues a long series; more values of the same kind are listed elsewhere.

This data set concerns rodent chemically induced tumor inhibition, incidence and multiplicity. Description: CCRIS tumor inhibitor studies. Particulars: Species: RAT, Promoter: NONE USED. The text has this:
The CCRIS database contains chemical records with carcinogenicity, mutagenicity, tumor promotion, and tumor inhibition test results. It was developed by the National Cancer Institute (NCI). Data are derived from studies cited in primary journals, current awareness tools, NCI reports, and other sources. Test results have been reviewed by experts in carcinogenesis and mutagenesis.
CCRIS provides historical information from the years 1985 - 2011. It is no longer updated.
This is an archive assay for CCRIS tumor inhibitor studies.

As for `O=[Se](O)O`, the “tumour outcome (control, treated, inhibition, significance)” value was 29/32 (91%), 61/72 (85%), 7%, not calculated (Carcinogen: 1,2-DIMETHYLHYDRAZINE DIHYDROCHLORIDE, 306-37-6, Carcinogen: 1,2-DIMETHYLHYDRAZINE DIHYDROCHLORIDE, 306-37-6, Dose [Inhibitor]: 4 PPM IN DRINKING WATER DAILY FOR 13 WK PRIOR TO CARCINOGEN TREATMENT (STUDY DURATION: 43-53 WK), Dose [Inhibitor]: 4 PPM IN DRINKING WATER DAILY FOR 13 WK PRIOR TO CARCINOGEN TREATMENT (STUDY DURATION: 43-53 WK), Route [Inhibitor]: ORAL, Strain/Sex: SPRAGUE-DAWLEY/MALE, VILLOUS ADENOMA, Target Tissue: Type of Lesion: COLON: ADENOCARCINOMA, VILLOUS ADENOMA, Dose [Carcinogen]: 20 MG/KG BW 1/WK FOR 20 WK); 29/32 (91%), 62/68 (91%), 0%, not calculated (Carcinogen: 1,2-DIMETHYLHYDRAZINE DIHYDROCHLORIDE, 306-37-6, Carcinogen: 1,2-DIMETHYLHYDRAZINE DIHYDROCHLORIDE, 306-37-6, Dose [Inhibitor]: 4 PPM IN DRINKING WATER DAILY FOR 33 WK STARTING 13 WK PRIOR TO CARCINOGEN TREATMENT AND CONTINUING FOR 20 WK DURING CAR, Dose [Inhibitor]: 4 PPM IN DRINKING WATER DAILY FOR 33 WK STARTING 13 WK PRIOR TO CARCINOGEN TREATMENT AND CONTINUING FOR 20 WK DURING CAR, Route [Inhibitor]: ORAL, Strain/Sex: SPRAGUE-DAWLEY/MALE, VILLOUS ADENOMA, Target Tissue: Type of Lesion: COLON: ADENOCARCINOMA, VILLOUS ADENOMA, Dose [Carcinogen]: 20 MG/KG BW 1/WK FOR 20 WK); 29/32 (91%), 59/68 (87%), 4%, not calculated (Carcinogen: 1,2-DIMETHYLHYDRAZINE DIHYDROCHLORIDE, 306-37-6, Carcinogen: 1,2-DIMETHYLHYDRAZINE DIHYDROCHLORIDE, 306-37-6, Dose [Inhibitor]: 4 PPM IN DRINKING WATER DAILY STARTING SIMULTANEOUSLY WITH CARCINOGEN TREATMENT AND CONTINUING FOR DURATION OF STUDY (ST, Dose [Inhibitor]: 4 PPM IN DRINKING WATER DAILY STARTING SIMULTANEOUSLY WITH CARCINOGEN TREATMENT AND CONTINUING FOR DURATION OF STUDY (ST, Route [Inhibitor]: ORAL, Strain/Sex: SPRAGUE-DAWLEY/MALE, VILLOUS ADENOMA, Target Tissue: Type of Lesion: COLON: ADENOCARCINOMA, VILLOUS ADENOMA, Dose [Carcinogen]: 20 MG/KG BW 1/WK FOR 20 WK); 4/10 (40%), 2/9 (22%), 45%, not calculated (Carcinogen: 3'-METHYL-4-DIMETHYLAMINOAZOBENZENE, 55-80-1, Carcinogen: 3'-METHYL-4-DIMETHYLAMINOAZOBENZENE, 55-80-1, Dose [Inhibitor]: 5 PPM IN DIET DAILY FOR 4 WK STARTING 4 WK AFTER COMPLETION OF THE FIRST 4 WK OF CARCINOGEN TREATMENT (STUDY DURATION: 2, Dose [Inhibitor]: 5 PPM IN DIET DAILY FOR 4 WK STARTING 4 WK AFTER COMPLETION OF THE FIRST 4 WK OF CARCINOGEN TREATMENT (STUDY DURATION: 2, Route [Inhibitor]: ORAL, Target Tissue: Type of Lesion: LIVER: TUMOR, Dose [Carcinogen]: 0.064% IN DIET FOR 4 WK THEN A 4 WK CARCINOGEN-FREE PERIOD FOLLOWED BY 0.048% FOR AN ADDITIONAL 4 WK); 8/13 (62%), 4/13 (31%), 50%, not calculated (Carcinogen: 3'-METHYL-4-DIMETHYLAMINOAZOBENZENE, 55-80-1, Carcinogen: 3'-METHYL-4-DIMETHYLAMINOAZOBENZENE, 55-80-1, Dose [Inhibitor]: 5 PPM IN DIET DAILY FOR 4 WK STARTING AFTER COMPLETION OF THE FIRST 4 WK OF CARCINOGEN TREATMENT (STUDY DURATION: 20 WK), Dose [Inhibitor]: 5 PPM IN DIET DAILY FOR 4 WK STARTING AFTER COMPLETION OF THE FIRST 4 WK OF CARCINOGEN TREATMENT (STUDY DURATION: 20 WK), Route [Inhibitor]: ORAL, Target Tissue: Type of Lesion: LIVER: TUMOR, Dose [Carcinogen]: 0.064% IN DIET DAILY FOR 4 WK BEFORE AND ANOTHER 4 WK AFTER AGENT TREATMENT); 20/25 (80%), 22/24 (92%), -15%, not significant (Carcinogen: 7,12-DIMETHYLBENZ[A]ANTHRACENE, 57-97-6, Carcinogen: 7,12-DIMETHYLBENZ[A]ANTHRACENE, 57-97-6, Dose [Inhibitor]: 0.15 UG/G OF A TORULA YEAST DIET DAILY FOR 36 D STARTING 22 D BEFORE CARCINOGEN TREATMENT FOLLOWED BY 0.21 UG/G OF A PUR, Dose [Inhibitor]: 0.15 UG/G OF A TORULA YEAST DIET DAILY FOR 36 D STARTING 22 D BEFORE CARCINOGEN TREATMENT FOLLOWED BY 0.21 UG/G OF A PUR, Route [Inhibitor]: ORAL, Strain/Sex: SPRAGUE-DAWLEY/FEMALE, Target Tissue: Type of Lesion: MAMMARY GLAND: CARCINOMA, Dose [Carcinogen]: 7.5 MG IN 1 ML SESAME OIL ONCE AT 50 D OF AGE). Besides, the “tumour outcome (control, treated, inhibition, significance)” value (Carcinogen: 7,12-DIMETHYLBENZ[A]ANTHRACENE, 57-97-6, Carcinogen: 7,12-DIMETHYLBENZ[A]ANTHRACENE, 57-97-6, Dose [Inhibitor]: 0.15 UG/G OF A TORULA YEAST DIET DAILY FOR 36 D STARTING 22 D BEFORE CARCINOGEN TREATMENT FOLLOWED BY 0.21 UG/G OF A PUR, Dose [Inhibitor]: 0.15 UG/G OF A TORULA YEAST DIET DAILY FOR 36 D STARTING 22 D BEFORE CARCINOGEN TREATMENT FOLLOWED BY 0.21 UG/G OF A PUR, Route [Inhibitor]: ORAL, Strain/Sex: SPRAGUE-DAWLEY/FEMALE, Target Tissue: Type of Lesion: MAMMARY GLAND: CARCINOMA, Dose [Carcinogen]: 15 MG IN 1.0 ML SESAME OIL ONCE AT 50 D OF AGE) was 17/17 (100%), 18/19 (95%), 5%, not significant.
